Assay results from PubChem BioAssay AID504374 (National Center for Advancing Translational Sciences (NCATS), 2011).
Out of some 1,500 compounds screened, about 100 (6.7%) were called active. Another 7% or so got no clear call; they are omitted. The call rests on the fitted dose curve; in most records, active means well fitted inhibition curve with a large enough effect; inconclusive means small, poorly fitted or top-dose-only effect, or effect the other way; inactive means flat fitted curve, though single readings scatter. Some of the results follow.

target: Runt-related transcription factor 1 (Homo sapiens) + Core-binding factor subunit beta (Homo sapiens) (UniProt Q01196+Q13951); assay: qHTS Assay for Compounds Blocking the Interaction Between CBF-beta and RUNX1 for the Treatment of Acute Myeloid Leukemia: Hit Validation; conditions: AlphaScreen CBFb-His/RUNX1-biotin binding; series mostly up to 59.8 µM; activity, negative = inhibition: at the top concentration; further: nearly all actives have a fitted effect of over 60% in size
Chain of UniProt Q01196 (Q01196 whole entry, looked up): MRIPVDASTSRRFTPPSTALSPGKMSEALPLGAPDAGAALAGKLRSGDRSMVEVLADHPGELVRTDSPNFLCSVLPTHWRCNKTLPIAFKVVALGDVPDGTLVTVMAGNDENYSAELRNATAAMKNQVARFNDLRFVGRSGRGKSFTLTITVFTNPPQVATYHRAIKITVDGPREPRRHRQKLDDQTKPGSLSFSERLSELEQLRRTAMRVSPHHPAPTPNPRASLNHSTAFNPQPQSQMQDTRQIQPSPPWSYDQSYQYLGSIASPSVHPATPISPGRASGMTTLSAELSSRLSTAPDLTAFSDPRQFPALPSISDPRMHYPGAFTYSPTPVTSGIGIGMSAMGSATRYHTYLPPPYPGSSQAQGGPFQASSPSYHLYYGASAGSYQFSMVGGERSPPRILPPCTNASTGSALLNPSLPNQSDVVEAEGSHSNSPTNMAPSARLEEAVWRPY
Chain of UniProt Q01196 (Q13951 whole entry, looked up): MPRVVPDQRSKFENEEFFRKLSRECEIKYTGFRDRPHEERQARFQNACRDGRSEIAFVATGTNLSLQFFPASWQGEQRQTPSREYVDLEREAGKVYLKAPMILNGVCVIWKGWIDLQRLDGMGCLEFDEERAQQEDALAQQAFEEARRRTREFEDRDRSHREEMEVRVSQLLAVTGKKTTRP
Outline: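 Compounds were added to a premixed CBF-beta-His/RUNX1-biotin complex (30 nM each, 20 min) for 15 min. Nickel and streptavidin AlphaScreen beads followed for 90 min at room temperature, with emission at 440 nm […].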
On the % scale 0 is the no-effect control and ±100 the full control effect; potency means the concentration at half of the fitted maximal effect.

activity, negative = inhibition, inactive:
COC(=O)c1ccc(C(=O)NN)cc1 -0.261%
CCOC(=O)CC(=O)CSc1nc(CC)c(C)cc1C#N -13.7%
Cn1c(=O)c2c(nc(N3CCOCC3)n2C/C=C/c2ccccc2)n(C)c1=O -3.33%
COc1cc(NC(=S)NCCO)c(OC)cc1Cl -1.84%
O=C(Nc1ccc(Cl)cc1)N1CCCC(Cn2cccc2)C1 (configuration not stated) -8.78%
Clc1ccc(CSc2nncn2-c2ccc3c(c2)OCCO3)cc1 3.74%
COc1ccccc1C1CCN(C(=O)c2ccco2)CC1 -1.76%
CCCSc1sc(C(=O)OC)c(-c2cccs2)c1C#N 4.32%
COc1cc(NC(N)=S)c(OC)cc1Cl -8.15%
CNC(=O)COC(=O)c1ccc(Cl)c(S(N)(=O)=O)c1 -5.94%
COc1ccccc1N1C(=O)[C@@H]2[C@H](C1=O)[C@H](C(=O)c1ccc(OC(C)=O)cc1)N1N=CC=C[C@@H]21 -8.37%
CCOc1ccc(/C=C2\CCc3ccccc3C2=O)cc1 -3.3%
CCC1(CC)Nc2ccccc2C(=O)N1c1ccc(OC)cc1 -2.48%
O=C(Nc1ccc(C(F)(F)F)cn1)Nc1cccs1 0.421%
Cc1nn(-c2ccccc2)nc1-c1nnc(-c2ccc(C(F)(F)F)cc2)o1 -14.5%
COc1ccccc1C1CCN(C(=O)c2cccs2)CC1 1.84%
CCN(CC)C(=N)/C(C#N)=N/Nc1ccc(C)cc1 -12.6%
Clc1c(Cl)c(Cl)c2n[nH]nc2c1Cl -6.47%
CC(=O)Nc1cccc(OCCCNC(=O)c2cccc3ccccc23)c1 -4.29%
CCCc1c(NC(=O)Nc2ccc(F)cc2)cnn1-c1ccccc1 -6.62%
CC(=O)Nc1ccc(S(=O)(=O)Nc2ccc(C(=O)NCC(=O)O)cc2)cc1 4.22%
CC12CCC(C(=Nc3ccc(N=C4C(=O)C5(C)CCC4C5(C)C)cc3)C1=O)C2(C)C -27.3%
CCC(CC)NCCOC(=O)c1ccc([N+](=O)[O-])cc1 -1.76%
CCC(C)c1ccc(OCc2ccc(C(=O)OC)o2)cc1 (configuration not stated) 39.2%
O=[N+]([O-])c1ccc(Sc2ccccn2)nc1 -3.29%
CCOC(=O)c1cn2nc(Oc3ccccc3)ccc2n1 -1.38%
[O-][N+]12CCCCC1CCCC2CO (configuration not stated) -7.8%
O=C(O)c1ccccc1C(=O)Nc1ccc(-n2ccc(C(F)(F)F)n2)cc1 -0.393%
Cc1ccc(Cl)cc1NC(=S)NN -9.41%
CC(=O)Nc1nnc(CSCc2ccc(F)cc2)s1 -1.58%
CCOC(=O)COc1nc2c(c(-c3ccco3)c1C#N)CCc1ccccc1-2 -2.28%
CCn1c2ccccc2c2cc(NC(=O)c3ccccc3-c3ccccc3C(=O)O)ccc21 10%
Cc1nc([N+](=O)[O-])cn1CCC#N 4.03%
COc1ccc(C(=O)CN2CCN(c3cc(C)nc4ccccc34)CC2)cc1 -4.52%
COC(=O)Cc1[nH]c(=O)[nH]c1C(=O)OC -2.87%
CCn1c(NC(=O)c2ccccc2F)c(-c2cccs2)c(=O)c2ccccc21 -8%
COC(=O)CC1C(=O)NC(C)=C1C(=O)OC (configuration not stated) -12.4%
OCc1nc2ccc(Cl)cc2[nH]1 -1.6%
COC(=O)c1cc(S(=O)(=O)Nc2nn(C)c3cccc(F)c23)oc1C -6.39%
Cc1ccc(/C=N/n2c(-c3ccncc3)n[nH]c2=S)s1 7.78%
COc1ccc(Cc2c(O)nc(SCC(=O)N3CCOCC3)[nH]c2=O)cc1 -4.91%
NC(=O)C1CCN(C(=S)NC2CC3C=CC2C3)CC1 (configuration not stated) 2.81%
CCCn1nnc(NC(=S)NC(=O)c2ccc(-c3ccc(Br)cc3)o2)n1 -7.74%
CN(C)CCCNC(=O)c1ccccc1Oc1ccccc1 3.71%
COc1ccc(NS(=O)(=O)c2ccc(Cl)s2)cn1 -2.13%
CN1c2ccccc2C(=O)/C(=C\Nc2ncccn2)S1(=O)=O -4.86%
C1CCCC(NC2=NCCO2)CCC1 -2.83%
CSc1cccc(NC(N)=S)c1 -4.24%
CN1CCC(CNC(=O)Nc2csc3ccccc23)CC1 7.69%
O=C(O)C1CC(c2ccccc2)=Nc2ccccc2S1 (configuration not stated) -3.57%
c1ccc(CN(Cc2ccccc2)c2ncnc3c2nnn3Cc2ccccc2)cc1 -1.94%
CCN(CC)C(=O)C12C(=O)Oc3ccccc3C1C2(C)C(=O)c1ccc(F)cc1 (configuration not stated) -1.08%
COc1ccc(CCN2C(=O)CSC2=Nc2ccc(C(C)C)cc2)cc1OC -0.02%
COC(=O)CC1=C(C(=O)OC)[C@@H](c2ccccc2[N+](=O)[O-])C(C#N)=C(N)O1 3.04%
CC1(C)C(CC2OCC(CN3CCCCC3)O2)[C@H]2CC[C@@H]1C2 (some centres not stated) -2.34%
NNC(=S)Nc1c(F)cc(F)cc1Br -7.15%
C[N+](C)(C)CCCN(Cc1ccc2c(c1)OCO2)C(=O)NC1CCCCC1 -8.77%
C/C(=N\NC(=O)Cn1nc(C)cc1C)c1ccc([N+](=O)[O-])cc1 -0.734%
CN1CCN(CC(=O)Nc2c(C#N)cnn2-c2ccccc2)CC1 9.42%
CCn1c(=O)c2c(nc3n2CCCN3c2cccc(C)c2)n(C)c1=O -4.87%
CC1(C)CC(=O)C2=C(C1)OC(N)=C(C#N)[C@@H]2c1ccccc1[N+](=O)[O-] -5.53%
COc1cc(/C=N/n2cc(-c3ccccc3)[nH]c2=S)cc(OC)c1O -11.7%
CCOC(=O)c1cn[nH]c1NC(=S)Nc1ccccc1 37.9% [at 21.7 µM]
Cc1nn(Cc2cccc(C(=O)NN)c2)c(C)c1Cl -7.99%
CCOC(=O)N1CCC(NS(=O)(=O)c2ccc(C)c(Cl)c2)CC1 -2.28%
O=C(Oc1c(-c2ccccc2)c(=O)n2c3c(cccc13)CC2)c1cccc([N+](=O)[O-])c1 6.43%
CCOC(=O)c1ccc(OC)c(OC)c1Cl -7.87%
CC1SCC(NC(=O)c2ccccc2Cl)CS1 (configuration not stated) -2.93%
CN(c1ccccn1)c1ncnc2[nH]ncc12 13.2%
CCOC(=O)c1c(CN2CCN(CCO)CC2)n(-c2ccccc2)c2cc(Br)c(O)cc12 -10.7%
COc1cccc(/C=N/NC(=O)C(C)Cn2cnc3ccccc32)c1 (configuration not stated) -0.552%
CCOC(=O)/C=C/c1nc(C(=O)OCC)c(C)c(=O)[nH]1 -1.52%
COc1ccc(-c2cn[nH]c2C)cc1 -1.74%
COc1ccc(Nc2cc(=O)n(-c3ccccc3)c3c2c(=O)n(C)c(=O)n3C)cc1 7.59%
COC(=O)c1ccc(S(=O)(=O)NCc2ccccc2)n1C -12.4%
CCCCCCC(=O)N(O)C1CC(=O)N(c2ccc(F)cc2)C1=O (configuration not stated) -2.04%
Cc1oc(S(=O)(=O)N(C)C)cc1C(=O)Nc1ccc(Cl)cc1 -5.12%
CCOC(=O)c1nnn2c3ccccc3c(=O)n(C)c12 -3.79%
O=C(O)CSc1ccc(NC(=O)Nc2ccccc2F)cc1 4.54%
Cc1ccc(C2=Nc3ccccc3SC(c3cccc([N+](=O)[O-])c3)C2)cc1 (configuration not stated) 1.17%
CCOC(=O)c1ccc(NC(=O)CC2SC3=NCCN3C2=O)cc1 (configuration not stated) -3.77%
Cc1ccc(NC(=S)Nc2ccc3[nH]c(=O)[nH]c3c2)cc1 -5.71%
Cc1ccc(S(=O)(=O)Nc2cc(-c3ccccc3)nn2C)cc1 -4.09%
COC(=O)c1ccc(S(=O)(=O)N(CCO)Cc2ccccc2)n1C -0.911%
CCN(CC)C(=O)CSc1nnc2nnc3cc(Cl)ccc3n12 2.44%
NC(=S)Nc1cc(Cl)ccc1Cl 5.13%
CC1CC(=O)Nc2ccccc2N1S(=O)(=O)c1ccc(C#N)cc1 (configuration not stated) 12.1%
CC(C)(C)NC(=O)c1cccc2c1C(=O)c1ccccc1-2 -5.31%
O=C(NC(=S)Nc1cc(C(F)(F)F)ccc1N1CCOCC1)c1ccco1 -20.8%
CCNc1nc(Cl)nc(-c2cn(-c3ccccc3)c3ccccc23)n1 3.04%
NNC(=O)c1ccc(COCC(F)(F)C(F)F)cc1 -1.86%
O=S(=O)(c1ccc(Cl)nc1)N1CCc2ccccc21 -2.9%
NC(=S)N1CCCc2ccccc21 -12.9%
Cc1csc2c(N3CCN(S(=O)(=O)c4ccc(Cl)cc4)CC3)ncnc12 -2.17%
O=S(=O)(CCN1CCSCC1)c1ccc(Cl)cc1 -4.66%
COc1ccc(-c2noc(-c3cccs3)n2)cc1OC -5.17%
COC(=O)[C@H](CC(C)C)NC(=O)NCCC1=CCCCC1 -14.1%
O=c1[nH]c(SCCN2CCOCC2)nc(O)c1-c1ccccc1 3.04%
Cc1ccc(C(=O)OCC(=O)Nc2ccc(S(N)(=O)=O)cc2)c(O)c1 0.594%
N#CC(C#N)=C(N)Nc1cccc(Cl)c1 -12.8%
COc1ccccc1NC(=S)NC1CCCCCCCCCCC1 -2.75%
Cn1cccc1/C=C1\SC(=S)N(NC(=O)c2ccc(F)cc2)C1=O -14.4%
O=C(O)COc1ccccc1/C=N/NC(=O)CSc1nnc(-c2ccc(Cl)cc2)n1C1CCCCC1 -7.97%
CC1(C)N=C(N)N=C(N)N1c1ccc(OCCCOc2ccccc2)c(Cl)c1 -10.6%
COc1ccc(C(=O)/C=C/Sc2nc3ccccc3o2)cc1 -2.46%
Cc1cc(=O)n2[nH]c(CCC(=O)O)nc2n1 1.21%
COc1cc([N+](=O)[O-])ccc1NC(=O)Oc1ccc(NC(C)=O)cc1 -5.38%
COc1ccc(/C=N/NC(=O)c2cc(C3CC3)[nH]n2)cc1OC -0.324%
Nc1nc(CCl)nc(N(c2ccccc2)c2ccccc2)n1 -8.08%
Cc1cc(NC(=O)CN2CCCCC2)n(-c2ccccc2)n1 2.06%
Cc1cccc(C)c1OCC(=O)N(Cc1ccc(N(C)C)cc1)C1CCS(=O)(=O)C1 (configuration not stated) -11.9%

Potency, active:
NCC(=O)Nc1ccc(Cl)cc1C(=O)c1ccc[nH]1 3.55 µM
Cc1ccc(C)c(NC(=S)N(CCN(C)C)C(C)c2ccccn2)c1 (configuration not stated) 4.86 µM
CC(=O)Oc1cc(-c2coc3cc(OC(C)=O)c(OC(C)=O)c(OC(C)=O)c3c2=O)cc(OC(C)=O)c1OC(C)=O 1 µM
Nc1ccc(N)c(C(=O)O)c1 0.794 µM
Cc1cccc(C)c1NC(=S)N(CCN(C)C)C(C)c1ccccn1 (configuration not stated) 4.86 µM
O=c1oc2c(O)c(O)cc3c(=O)oc4c(O)c(O)cc1c4c23 0.158 µM
